Data: publication PMC4336329 (PLoS ONE, 2015)
About 2,200 (0.71%) of roughly 310,000 compounds showed an effect of 50% or more. Effects have a minus sign here. Some of the results follow.

Each compound was assayed against human ether-à-go-go-related gene (hERG) potassium channel (human, UniProt Q12809) (assay: primary screen, population patch clamp on CHO cells stably expressing hERG).
Chain of human ether-à-go-go-related gene (hERG) potassium channel (Q12809 whole entry, looked up): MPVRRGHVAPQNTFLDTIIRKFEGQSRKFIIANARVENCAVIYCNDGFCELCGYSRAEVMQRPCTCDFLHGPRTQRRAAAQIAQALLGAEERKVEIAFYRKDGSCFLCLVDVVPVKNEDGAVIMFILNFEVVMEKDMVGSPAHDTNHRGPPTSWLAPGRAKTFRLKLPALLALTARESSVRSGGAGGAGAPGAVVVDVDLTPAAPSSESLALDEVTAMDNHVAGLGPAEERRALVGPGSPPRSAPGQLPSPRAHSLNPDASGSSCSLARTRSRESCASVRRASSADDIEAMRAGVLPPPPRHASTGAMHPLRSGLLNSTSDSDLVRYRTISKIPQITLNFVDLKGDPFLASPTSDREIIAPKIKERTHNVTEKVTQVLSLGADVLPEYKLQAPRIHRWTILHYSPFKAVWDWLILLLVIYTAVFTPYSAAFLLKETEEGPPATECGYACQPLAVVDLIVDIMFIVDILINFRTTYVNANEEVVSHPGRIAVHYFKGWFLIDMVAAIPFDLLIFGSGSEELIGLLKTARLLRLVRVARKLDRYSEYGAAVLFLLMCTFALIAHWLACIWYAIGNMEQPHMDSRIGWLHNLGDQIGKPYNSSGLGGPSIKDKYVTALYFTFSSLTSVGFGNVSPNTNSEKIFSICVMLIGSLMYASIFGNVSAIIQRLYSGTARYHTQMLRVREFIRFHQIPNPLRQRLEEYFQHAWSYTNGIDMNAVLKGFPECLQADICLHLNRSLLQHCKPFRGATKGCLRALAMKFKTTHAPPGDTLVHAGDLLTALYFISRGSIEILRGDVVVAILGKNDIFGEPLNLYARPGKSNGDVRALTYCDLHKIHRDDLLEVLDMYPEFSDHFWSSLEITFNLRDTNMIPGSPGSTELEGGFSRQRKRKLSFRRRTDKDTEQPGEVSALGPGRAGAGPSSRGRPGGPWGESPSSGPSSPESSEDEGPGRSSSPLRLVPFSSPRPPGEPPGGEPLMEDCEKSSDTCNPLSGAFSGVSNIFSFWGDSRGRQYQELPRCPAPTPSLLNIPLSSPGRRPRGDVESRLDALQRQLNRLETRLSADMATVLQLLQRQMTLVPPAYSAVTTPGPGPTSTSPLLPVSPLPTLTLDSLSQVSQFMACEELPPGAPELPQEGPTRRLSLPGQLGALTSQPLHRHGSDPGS

In order of rising “hERG current change (%, negative = inhibition) at 1uM” value:
1. Br.CCCCCN1C2=NCCN2c2ccccc21  -58.9%
2. CCOc1ccc(C(=O)NCC(=O)NC(C)c2ccc(-n3ccnc3)cc2)cc1OCC (stereo not shown)  -31.3%
3. CN(CCc1nc2ccc(Cl)cc2[nH]1)Cc1nc(CC2CC2)no1  -21.4%
4. CC(C)Cn1c(N)c(C(=O)COC(=O)Cc2cccs2)c(=O)n(C)c1=O  -16%
5. O=C(COc1ccc(Br)cc1)N1CCN(Cc2ccc3c(c2)OCO3)CC1  -7.91%
6. CCOC(=O)C1CCN(c2nc3cc(OC)ccc3cc2C#N)CC1  -7.3%
7. CCN(CC(=O)NCc1cccs1)C(=O)c1cccc(S(=O)(=O)Nc2ccccc2Cl)c1  -6.48%
8. CC(=O)Nc1cccc(NC(=O)c2cc(-c3cccnc3)nc3ccc(Br)cc23)c1  -5.83%
9. COc1cccc(OC)c1OCCCCn1cnc2ccccc2c1=O.O=C(O)C(=O)O  -5.18%
10. O=C(CSc1nc2ccccc2c(=O)n1CC1CCCO1)Nc1ccccc1 (stereo not shown)  -5%
11. COc1cc(C(=S)N2CCOCC2)cc(OC)c1OS(=O)(=O)c1ccc(NC(C)=O)cc1  -4.68%
12. Cc1ccc(-n2nnnc2SCC(=O)N2c3ccccc3NC(=O)C2(C)C)cc1  -4.24%
13. CCCSc1nc(=O)n2cccc(C)c2n1  -2.94%
14. COc1ccc(S(=O)(=O)N2CCCCC2)cc1NC(=O)CSc1nnc(C2CC2)n1C  -2.45%
15. C/C(=C/C(=O)O)C(=O)Nc1cccc(C(F)(F)F)c1  -2.33%
16. COc1ccc(-c2nc(CSCC(=O)N3CCN(C(=O)c4ccco4)CC3)c(C)o2)cc1OC  -2.27%
17. CC(C)C(=O)N=c1sc2cccc(F)c2n1C  -1.45%
18. CC(=O)Nc1ccc(C(=O)OCC(=O)NCc2cccs2)cc1  -0.761%
19. CCN1C(=O)[C@@H]2[C@@H](c3ccc(-c4ccc(Cl)c(Cl)c4)c(OC)c3)N3CCCC[C@@]3(C(=O)OC)[C@@H]2C1=O.O=C(O)C(F)(F)F  -0.751%
20. Oc1c(Br)cc(C2N=C(c3ccccc3Cl)NO2)cc1Br (stereo not shown)  0.471%
21. CN(c1ccccc1)S(=O)(=O)c1ccc(Cl)nc1  1.62%
22. COc1ccc(NC(=O)CN(C)S(=O)(=O)c2ccc(Cl)cc2)cc1Cl  2.38%
23. Cc1[nH]c2ccccc2c1SCCNC(=O)c1ccc(S(=O)(=O)N2CCCC2)cc1  2.47%
24. CCN(CC)P(=O)(Nc1ccccc1Br)c1ccc(N(C)C)cc1NC(=O)c1ccco1 (stereo not shown)  2.61%
25. O=C(Nc1ccccc1F)C1CCCN(S(=O)(=O)c2cccc3cccnc23)C1 (stereo not shown)  2.79%
26. CC(=O)NCCOc1ccc2oc3ccccc3c2c1  3.44%
27. Cc1ccccc1OCCC(=O)N(Cc1ccccc1)c1c(N)n(Cc2ccccc2)c(=O)[nH]c1=O  3.9%
28. CCOC(=O)C1=C(C)Nc2ncnn2C1c1ccccc1F (stereo not shown)  4.29%
29. CC(=O)Nc1ccc2sccc2c1  4.3%
30. CCOc1cc(C(=O)OCC(=O)c2c[nH]c3ccccc23)ccc1OCC(=O)N1CCOCC1  4.47%
31. Cc1ccc(C2NC(=O)NC3=C2CCc2ccccc23)cc1 (stereo not shown)  4.51%
32. Fc1ccccc1Cc1ccc(Cl)nn1  4.8%
33. COc1ccc(CCNC(=O)CN(c2ccccc2OC)S(C)(=O)=O)cc1  5.19%
34. COc1ccc(Cc2nnc(NC(=O)c3cccs3)s2)cc1  5.36%
35. CC(=O)Nc1cccc(-c2cn3ccc(C)cc3n2)c1  5.38%
36. CCCc1cc(=O)[nH]c(SCC(=O)OCc2ccccc2)n1  6.22%
37. Cc1cc(C)c2ccc(C(=O)O)nc2c1O  6.32%
38. C=CCn1c2ccccc2c2nn(C)c(=S)nc21  7.09%
39. COc1ccc(-n2c(SCC(=O)NCC3CCCO3)nc3n[nH]c(C)c3c2=N)cc1 (stereo not shown)  7.29%
40. CC1(C)CC(=O)C2=C(C1)Nc1ccccc1NC2c1cccnc1 (stereo not shown)  7.57%
41. COc1cccc(NC(=O)c2cnn(-c3ccccc3)c2C)c1  7.81%
42. NNc1nc(NCc2ccccc2)nc(N2CCOCC2)n1  8.03%
43. COc1ccc(CNC(=O)c2cccc(-c3ccc(C)c4ccccc34)n2)cc1  8.29%
44. O=C(N/N=C/c1cc([N+](=O)[O-])ccc1O)c1ccncc1  8.43%
45. CC(C)NC(=O)NC(=O)COc1c(F)c(F)cc(F)c1F  8.47%
46. COC(=O)NC1CCC(NC(=O)OC)CC1 (stereo not shown)  8.6%
47. O=C(Nc1ccccc1F)C(=O)Nc1cccc2ccccc12  8.69%
48. CN(C(=O)CSc1nnc(-c2ccco2)n1Cc1ccccc1)C1CCS(=O)(=O)C1 (stereo not shown)  8.83%
49. COc1cc(OC)cc(C(=O)NC(C(=O)Nc2ccc3c(c2)CCC3)C(C)C)c1 (stereo not shown)  9.07%
50. O=C(c1ccc(F)cc1)N1CCCC(c2ccccc2)C1 (stereo not shown)  9.25%
51. Cc1cc(NC(=O)c2cccs2)cc(-c2nc3ncccc3o2)c1O  9.47%
52. CCOc1ccccc1NC(=O)c1sc2nc(C)nc(N3CCOCC3)c2c1C  9.49%
53. C/C(=N/NC(=O)CC1N=C(Cc2ccccc2)NNC1=O)c1cccnc1 (stereo not shown)  9.54%
54. COc1ccccc1N(CC(=O)Nc1ccc(Cc2ccncc2)cc1)S(=O)(=O)c1ccccc1  9.9%
55. Nc1c(C(=O)Nc2cccc(F)c2)nnn1-c1cccc(C(F)(F)F)c1  9.98%
56. O=c1c2cc(NC(=S)NCc3ccccn3)ccc2nc2n1CCCCC2  10.4%
57. COC(=O)c1cc(-c2ccccc2)n(CCN)c1C.Cl  10.7%
58. CCCCC(c1nnnn1C(C)C)N1CCN(C(=O)c2ccco2)CC1.Cl (stereo not shown)  10.7%
59. CC(=O)c1ccccc1NS(=O)(=O)c1ccccc1Cl  11%
60. O=C(NC(=S)NNC(=O)c1cnccn1)c1ccc(Cl)cc1  11.2%
61. O=C(Cn1nc(-c2ccccc2)c2ccccc2c1=O)NN1CCOCC1  11.3%
62. CCOCc1nc(N)[nH]c(=O)c1Cc1ccc(OC(C)C)cc1  11.5%
63. O=C(Oc1ccc(-c2nnco2)cc1)c1ccc(F)c(S(=O)(=O)N2CCOCC2)c1  11.6%
64. CC(C)N1CCN(Cc2ccc(Sc3nncn3C)o2)CC1CCO (stereo not shown)  11.8%
65. Cc1onc(-c2c(F)cccc2Cl)c1C(=O)c1ccc(F)cc1  11.8%
66. O=C(CN1CCc2ccccc2C1)Nc1ccc(OC(F)(F)F)cc1  12.1%
67. CCCCN(CC(=O)NCc1ccc(F)cc1)C(=O)c1ccco1  12.5%
68. CN(C)C=NC(=O)c1cc(C(=O)c2ccc(Cl)cc2Cl)c[nH]1  12.6%
69. N/C(=N\OC(=O)c1cnn(-c2ccccc2)c1C(F)(F)F)c1cc(C(F)(F)F)cc(C(F)(F)F)c1  12.9%
70. CC(NC(=S)NNS(=O)(=O)c1cccc([N+](=O)[O-])c1)c1ccccc1 (stereo not shown)  12.9%
71. O=C(CSc1nccn1-c1ccccc1)Nc1ccc2c(c1)OCO2  13.3%
72. C=CCn1c(Cc2nc3ccccc3[nH]2)n[nH]c1=S  13.4%
73. CC(Cc1cccs1)NC(=O)CCCn1nnnc1CN1CCOCC1 (stereo not shown)  13.7%
74. Cc1nnc(NCc2ccccc2)c2ccccc12  13.7%
75. CC(C)CNC(C)C(=O)Nc1ccc(S(N)(=O)=O)cc1 (stereo not shown)  14.2%
76. O=C(CSc1n[nH]c(-c2ccco2)n1)Nc1ccccc1F  14.3%
77. COc1ccc(NC(=O)CS(=O)CC(=O)Nc2ccc(OC)c(OC)c2)cc1 (stereo not shown)  14.4%
78. COc1cc(/C=C(\NC(=O)c2ccccc2)C(=O)Nc2nccs2)ccc1OC(C)=O  14.7%
79. COc1ccc(NC(=O)CSc2nnc(Cc3cccn3C)n2-c2ccc(C)cc2)cc1OC  16.1%
80. Cc1cccc(NC(=O)CSc2nc3[nH]ncc3c(=O)[nH]2)c1C  16.4%
81. Cn1c(=O)[nH]c(=O)c2c1nc(N1CCOCC1)n2CCSc1nc2ccccc2[nH]1  16.8%
82. Cc1nc2oc3ccc(Cl)cc3c(=O)c2cc1C(=O)O  17.1%
83. Cc1ccc(C(=O)c2c3ccccc3[n+]([O-])n2CCC(=O)O)cc1  17.9%
84. COc1ccccc1C1CN=NC12CCCc1ccccc1C2=O (stereo not shown)  18.8%
85. CCOc1ccc(N(CC(=O)NC(C(C)C)C(C)C)S(=O)(=O)c2ccc(OC)c(OC)c2)cc1  19.4%
86. Cc1nn(-c2ccccc2)nc1-c1nnc(-c2ccc(C(F)(F)F)cc2)o1  19.8%
87. O=C1c2ccccc2NC(c2cccc(O)c2)N1c1ccccc1 (stereo not shown)  20.4%
88. CC(=O)N1N=C(c2ccco2)CC1c1ccc(Cl)o1 (stereo not shown)  21.4%
